Results from PubChem BioAssay AID624417 (National Center for Advancing Translational Sciences (NCATS), 2012).
The campaign covered roughly 410,000 compounds. About 6,400 (1.6%) were called active. Inconclusive results, whose numbers are uncertain, are shown with a selection of clear calls. Calls come from the whole dose curve; as a rule, active = well fitted inhibition curve with a large enough effect; inconclusive = small, poorly fitted or top-dose-only effect; inactive = no such curve, though single readings can be large or run the other way. Potencies of inconclusive entries are left out as doubtful fits.

What follows are compounds tested against Glucagon-like peptide 1 receptor (Homo sapiens) (UniProt P43220) (assay: qHTS of GLP-1 Receptor Inverse Agonists (Inhibition Mode)). Conditions: HEK293 GLP-1R CRE-luciferase, luminescence, 24 h, GLP-1R form is constitutively active; activity change, negative = inhibition: at 38.3 µM (top of the series) unless noted.
Method in brief: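 Seeding at 200 cells/uL, 12 h culture, 24 hr compound treatment, then luciferase reagent and a luminescence read; cells are HEK293 stably expressing a constitutively active GLP-1R plus cAMP-responsive luciferase.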
% is set by controls: 0 for no effect and ±100 for the full control effect; potency is the fitted concentration of half-maximal effect; tags give direction and shape of the fitted curve.
Note: nearly all actives have a fitted effect of over 55% in size.

UniProt P43220, sequence (P43220 whole entry, looked up): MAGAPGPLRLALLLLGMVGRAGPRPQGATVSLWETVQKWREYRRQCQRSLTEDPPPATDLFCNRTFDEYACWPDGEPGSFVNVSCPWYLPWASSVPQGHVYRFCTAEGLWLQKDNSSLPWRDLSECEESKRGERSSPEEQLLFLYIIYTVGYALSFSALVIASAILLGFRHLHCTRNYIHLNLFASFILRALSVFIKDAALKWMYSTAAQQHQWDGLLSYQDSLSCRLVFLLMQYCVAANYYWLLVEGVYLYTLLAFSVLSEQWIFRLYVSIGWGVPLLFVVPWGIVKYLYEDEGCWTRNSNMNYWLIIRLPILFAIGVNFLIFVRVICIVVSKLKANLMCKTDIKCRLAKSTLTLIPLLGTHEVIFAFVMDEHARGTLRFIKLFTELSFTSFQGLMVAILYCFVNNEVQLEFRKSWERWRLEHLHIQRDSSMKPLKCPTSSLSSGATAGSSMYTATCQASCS

Compound	Potency	activity change, negative = inhibition
Cc1onc(-c2c(F)cccc2Cl)c1C(=O)Oc1ccccc1	inconclusive [inhibitor, single point]	–
O=C(C(Br)=Cc1ccccc1)c1ccccc1	inconclusive [inhibitor, partial curve, poor fit]	–
CCc1nnc(NC(=O)CCC(=O)N2CCN(Cc3ccc(OC)c(F)c3)CC2)s1	–	inactive: -5.91%
CCCCN(CC)CCNC(=O)c1cc2c(=O)n(C)c3ccccc3c2n1C	–	inactive: -25.9%
COc1ccc(S(=O)(=O)N(CC(=O)N2CCc3ccccc3C2)c2ccc(C)cc2)cc1	inconclusive [inhibitor, partial curve, poor fit]	–
CC(C)(C)NC(=S)N/N=C/c1cc(Br)c(O)c(Br)c1	inconclusive [inhibitor, partial curve, poor fit]	–
OC(Cc1ccccc1)c1ncc(-c2ccc(Cl)cc2)[nH]1 (centres undefined)	inconclusive [inhibitor, partial curve, poor fit]	–
O=C(O)CCN=Cc1c(O)c2ccccc2oc1=O	inconclusive [inhibitor, single point]	–
CC(=O)OCCn1c(C)[n+](CCOC(C)=O)c2cc(Cl)c(Cl)cc21	–	inactive: 4.09%
CCN(Cc1nc2ccccc2n1C)c1ccccc1	inconclusive [inhibitor, partial curve, poor fit]	–
CN(CC(=O)Nc1cccc(F)c1)C(=O)c1csc2c1CCCC2	inconclusive [inhibitor, partial curve, poor fit]	–
O=C(CNCc1cccs1)Nc1ccc(S(=O)(=O)N2CCCCC2)cc1	inconclusive [inhibitor, partial curve]	–
COC(=O)c1sccc1NC(=O)c1c(Cl)cccc1Cl	inconclusive [inhibitor, partial curve, poor fit]	–
COc1ccc2nc(SCc3cccc(C)c3)nc(C)c2c1	inconclusive [inhibitor, single point]	–
O=C(CNC(=O)c1ccc(F)cc1)N/N=C/c1cc(Br)ccc1OC(=O)/C=C/c1ccco1	inconclusive [inhibitor, full curve, poor fit]	–
O=C(NCc1ccccc1F)C1CCCN(C(=O)N2CCOc3ccccc32)C1 (centres undefined)	–	inactive: -5.06%
O=C(Nc1cccc(Cl)c1)N1CCN(Cc2ccccc2)CC1	inconclusive [inhibitor, single point]	–
CC(OC(=O)CCN1C(=O)C2CC=CCC2C1=O)C(=O)Nc1ccc(F)cc1 (centres undefined)	inconclusive [inhibitor, partial curve]	–
CCOC(=O)NC(=O)/C(C#N)=C\Nc1ccc(Cl)cc1Cl	–	inactive: 13.6%
CC(C)C(c1nnnn1Cc1ccccc1)N(Cc1ccco1)Cc1cccs1 (centres undefined)	inconclusive [inhibitor, partial curve, poor fit]	–
Cc1nc(NCc2ccco2)c(C#N)c2c1COC(C)(C)C2	–	inactive: 2.32%
CCCCNC(=O)c1c(O)c2cccc3c2n(c1=O)CCC3	inconclusive [inhibitor, full curve, poor fit]	–

Compound	Potency	activity change, negative = inhibition
Cc1nc2ccc(NS(=O)(=O)c3c(C)c(C)cc(C)c3C)cc2s1	inconclusive [inhibitor, partial curve, poor fit]	–
COc1ccc(Cc2nc(-c3cccc(C)c3)no2)cc1	inconclusive [inhibitor, single point]	–
COc1cc2cc(CN(CCc3cccc(C)c3)C(=S)NCCCN3CCOCC3)c(=O)[nH]c2cc1OC	inconclusive [inhibitor, single point]	–
COc1ccc(S(=O)(=O)N2CCCCC2)cc1NC(=O)CN(Cc1ccco1)Cc1ccco1	inconclusive [inhibitor, single point]	–
Cc1ccccc1C(=O)Nc1ccc(S(=O)(=O)N2CCC(c3nc4ccccc4s3)CC2)cc1	–	inactive: -4.41%
COc1ccc(NC(=O)c2cc(-c3cc(F)ccc3OC)n[nH]2)c(OC)c1	inconclusive [inhibitor, single point]	–
CC(=O)Nc1ccc(SCC(=O)c2cc(C)n(-c3ccccc3F)c2C)cc1	inconclusive [inhibitor, partial curve, poor fit]	–
O=C(CNC(=O)c1ccc(Br)o1)Nc1ccc(N2CCCCCC2)cc1	inconclusive [inhibitor, partial curve, poor fit]	–
O=C(Nc1nc(-c2ccccn2)cs1)c1ncc(Cl)c(Cl)c1Cl	inconclusive [inhibitor, partial curve, poor fit]	–
CC(C)c1ccc(NC(=O)CN(Cc2ccccc2)S(C)(=O)=O)cc1	inconclusive [inhibitor, single point]	–
Cc1csc(NC(=O)C(C)Oc2ccc(Cl)cc2C)n1 (centres undefined)	inconclusive [inhibitor, single point]	–
COc1ccc(-c2nc(N)nc(C)c2-c2ccc(Cl)cc2)c(O)c1	inconclusive [inhibitor, single point]	–
C/C(=N\NC(=O)c1nnn(-c2nonc2N)c1-c1ccc(Cl)c(Cl)c1)c1ccncc1	inconclusive [inhibitor, single point]	–
CC1Cc2ccccc2N1C(=O)C1CCCN(S(=O)(=O)c2cccc3nsnc23)C1 (centres undefined)	inconclusive [inhibitor, full curve, poor fit]	–
CC(C)C[C@@H](CN)NC(=O)c1nc[nH]c1C(=O)N[C@@H](CC(C)C)C(=O)CNC[C@H](C)NC(=O)c1nc[nH]c1C(=O)N[C@@H](CC(=O)O)C(=O)O	–	inactive: 3.28%
CC(C)(C)c1ccc(NC(=O)Cn2cnc3cc([N+](=O)[O-])ccc3c2=O)cc1	inconclusive [inhibitor, partial curve, poor fit]	–
COc1ccc(C(C(=O)NC2CCCCC2)N(C(=O)c2sc(C)nc2C)c2ccccc2C)cc1 (centres undefined)	inconclusive [inhibitor, single point]	–
C[C@H](CO)N1C[C@H](C)[C@@H](CN(C)Cc2ccc(Oc3ccccc3)cc2)Oc2c(NC(=O)C3CC3)cccc2C1=O	inconclusive [inhibitor, single point]	–
COc1ccc2[nH]c(C(=O)O)c(CCN3C(=O)c4ccc(C(=O)O)cc4C3=O)c2c1	–	inactive: 20.7%
COC(=O)[C@]1(CC(C)C)N[C@H](c2ccc(-c3ccccc3)cc2)[C@@H]2C(=O)N(C)C(=O)[C@@H]21	inconclusive [inhibitor, single point]	–
Cc1cc(C(=O)NC2CCCc3c2cnn3-c2ccc(C(C)(C)C)cc2)n[nH]1 (centres undefined)	inconclusive [inhibitor, partial curve, poor fit]	–
Cc1cccc(NC(=O)c2cnc3sc(N4CCCC4)nn3c2=O)c1C	–	inactive: 10.5%

Compound	Potency	activity change, negative = inhibition
COc1ccc(NC(=O)NC2CC3CCCC(C2)N3Cc2ccccc2)cc1 (centres undefined)	inconclusive [inhibitor, partial curve, poor fit]	–
COc1cccc2sc(N(Cc3cccnc3)C(=O)c3ccco3)nc12	–	inactive: -9.8%
CCCCOc1ccc(C2=NC(c3cccs3)=Nc3ccc(OC)cc3N2)cc1	inconclusive [inhibitor, single point]	–
COc1ccc2nc(NC(=O)CSc3ccccc3)sc2c1	inconclusive [inhibitor, single point]	–
CC1CCC2(CC1)C(Nc1cccc(Cl)c1)=NC(=S)N2CC#N (centres undefined)	inconclusive [inhibitor, partial curve, poor fit]	–
Cc1cc(NC2CCCCC2)nc(-c2ccccc2O)n1	inconclusive [inhibitor, partial curve, poor fit]	–
CC(=O)NCCc1nc2cc(NC(=O)c3ccc([N+](=O)[O-])cc3)ccc2n1C	–	inactive: 2.38%
Fc1ccc(Cn2cc(C(=S)N3CCOCC3)c3ccccc32)cc1	inconclusive [inhibitor, single point]	–
Cc1cccc(-c2nc3c4c(-c5ccccc5)c(-c5ccccc5)oc4ncn3n2)c1	–	inactive: 6.2%
CCOC(=O)c1c(CN2CCN(CC#N)CC2)n(C)c2cc(Br)c(OC)cc12	inconclusive [inhibitor, partial curve, poor fit]	–
Cc1c(C)c2ccc(OCC(=O)c3ccccc3)cc2oc1=O	–	inactive: 34.6%
COc1ccc2oc(C(=O)OCC(=O)N3C(C)CCCC3C)c(C)c2c1 (centres undefined)	inconclusive [inhibitor, single point]	–
O=C(CSc1nnc(-c2ccccc2)n1-c1ccc(Cl)cc1)N/N=C/c1ccco1	inconclusive [inhibitor, single point]	–
Cc1cccc(NC(=O)Cn2cc(S(=O)(=O)N3CCCC3)c(S(=O)(=O)N3CCCC3)c2)c1C	–	inactive: 2%
COc1cccc2sc3ccc(C#CC4(O)CCCCC4)cc3c(=O)c12	inconclusive [inhibitor, single point]	–
CC(=NNC(=S)N1CC2CCC(CC2)C1)c1cccc(C)n1	inconclusive [inhibitor, partial curve, poor fit]	–
COc1cc2[nH]c(=O)n(Cc3ccc(C(=O)NCCCN4CCC(C)CC4)cc3)c(=O)c2cc1OC	–	inactive: 0%
CCC1CCc2nc3sc(C(=O)Nc4cccc(F)c4)c(N)c3cc2C1 (centres undefined)	–	inactive: 3.43%
O=C(N/N=C/c1ccccc1)c1ccc(OCc2ccccc2)cc1	–	inactive: -10.9%
Cc1ccc(-c2cc(C(F)F)n3ncc(C(=O)N4CCc5ccccc54)c3n2)cc1	inconclusive [inhibitor, full curve, poor fit]	–
